# The supplement of paper PMC3334620
# The full ranking holds about 33,000 sequences; the median of “E-score (-0.5 to 0.5)” is about -0.012, and the highest 2% start at about 0.27. This is one part of the list.
# Target: T1, Vhr1 (UniProt P40522)
# T1 sequence: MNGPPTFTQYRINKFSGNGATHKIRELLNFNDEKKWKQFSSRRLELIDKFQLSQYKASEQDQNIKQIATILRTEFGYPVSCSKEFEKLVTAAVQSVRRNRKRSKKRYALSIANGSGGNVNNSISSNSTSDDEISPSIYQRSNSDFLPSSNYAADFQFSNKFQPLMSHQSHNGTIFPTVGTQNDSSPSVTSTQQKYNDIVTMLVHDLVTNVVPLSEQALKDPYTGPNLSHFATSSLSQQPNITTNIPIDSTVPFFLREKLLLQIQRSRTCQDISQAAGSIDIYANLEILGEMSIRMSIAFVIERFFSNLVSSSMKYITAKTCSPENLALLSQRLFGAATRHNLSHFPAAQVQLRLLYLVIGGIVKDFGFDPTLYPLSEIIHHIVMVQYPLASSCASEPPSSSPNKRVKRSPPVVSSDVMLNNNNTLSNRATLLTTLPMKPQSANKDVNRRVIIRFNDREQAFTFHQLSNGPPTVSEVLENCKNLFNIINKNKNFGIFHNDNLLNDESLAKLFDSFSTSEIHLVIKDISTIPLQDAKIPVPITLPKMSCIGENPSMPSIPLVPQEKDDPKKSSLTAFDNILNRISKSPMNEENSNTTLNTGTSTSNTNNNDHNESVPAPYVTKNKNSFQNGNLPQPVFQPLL
# Test: PBM E-score (8-mer binding enrichment) (E-score (-0.5 to 0.5)); higher = stronger / more preferred TF binding; most listed sequences are background and not binding sites
# Settings: protein concentration: 200 nM; construct: GST-full length
# Description: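 Universal 'all 10-mer' protein binding microarrays (Agilent AMADID 015681) probed with GST-tagged S. cerevisiae TFs (full-length or DBD) made by in vitro transcription/translation (PURExpress), about 100-200 nM. Bound TF was detected with fluorescent anti-GST. Each ungapped 8-mer (which stands for itself and its reverse complement) is scored by the PBM enrichment score (E-score), a modified Wilcoxon-Mann-Whitney statistic from -0.5 to +0.5, computed with the Universal PBM Analysis Suite. Scale: above 0.35 generally sequence-specific binding.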
row,Sequence,PBM E-score
1,CACCCTTA,0.021
2,ACGTCAAA,-0.197
3,GTATGATA,0.185
4,AGCCTAAT,-0.225
5,AATATTAA,0.239
6,ATATATGA,0.107
7,AACAACGC,-0.106
8,CGGTCCAG,0.00237
9,ACGCTAGG,-0.0568
10,CTTTCGTA,-0.155
11,GACGTACC,-0.164
12,AGGGTCCC,-0.238
13,ATCCCTGA,0.0173
14,GCGAAGCC,-0.204
15,CCGAAAAG,0.0987
16,GTTCGACA,0.112
17,AGCTTTGG,-0.156
18,AAACAGAT,-0.0763
19,ACGTAATG,0.0488
20,CTGTCTCA,0.043
21,CAATATCC,0.0405
22,CCGGCTCC,0.162
23,AGGGCCAC,-0.107
24,AGTGCGGA,0.147
25,CAGAGCGC,-0.32

row,Sequence,PBM E-score
1,AGATCCAT,0.00405
2,AAAATCGT,-0.0723
3,TAAACTTA,-0.0765
4,CTGTTTCA,-0.0224
5,ATGGGAGA,-0.0548
6,GGAGAACC,-0.225
7,AGGCGCGG,-0.129
8,GTGCCAAC,0.0723
9,CGTCCACC,-0.255
10,AAAACAAT,-0.0254
11,CTCTCAAA,-0.262
12,AAGCTGGT,-0.0746
13,TGAAGCCA,-0.0993
14,ATAACAGC,-0.0189
15,CCACGTTC,-0.0854
16,ATTGCTTG,-0.00443
17,GGTAAGGA,-0.113
18,GCGAGCGC,-0.144
19,GCACTCAC,-0.0104
20,GGCTTAAA,-0.15
21,CATTGGGC,-0.208
22,ATCCTTCA,0.115
23,GACTTCAC,0.0751
24,GCGTTTTA,-0.194
25,CACGATAC,-0.00618

row,Sequence,PBM E-score
1,AATTAAAT,-0.125
2,CAGCCGAG,0.105
3,CCATTTCC,0.026
4,AGACTCCA,0.133
5,AAGTACCA,0.0514
6,TATAGGCA,-0.118
7,TAGTTGAA,0.134
8,TCACGCCA,0.0671
9,GTCCAAGA,-0.199
10,AATAATAA,0.119
11,ACCGTCCT,-0.163
12,AAATTGGA,-0.0529
13,ACCAGGTA,0.0155
14,AACGATTG,-0.0379
15,AGGTAGTG,0.0605
16,CCTTGGAG,-0.0367
17,ACGGTTAT,0.0184
18,CAATGAGA,-0.0377
19,CACACGTA,0.0479
20,CCGTTGCG,-0.0773
21,CGGAGGGA,-0.206
22,GAGAAACA,0.0292
23,GAGTGTGA,0.278
24,CGGCCAAC,0.0556
25,ATCCCTAA,-0.332

row,Sequence,PBM E-score
1,GCAGCGGC,-0.016
2,AAAGCCGC,-0.27
3,TCTAGAGA,-0.331
4,CGTATTAG,0.0481
5,AAAAGGTT,-0.287
6,ATTCATCC,0.0498
7,AGATAGTC,0.109
8,CCATAATA,0.213
9,CCCTGAGG,-0.219
10,CAGTGATC,0.215
11,CGTGACCC,0.141
12,AGTGGCCG,-0.0641
13,CCCATCGC,0.237
14,GTTTCTTA,-0.142
15,GAATTACA,-0.0583
16,GCGGGAAA,-0.0475
17,ATGTCGGA,0.135
18,GGCTGAAA,0.00046
19,CTCTCGCC,-0.261
20,AGATCGAA,-0.117
21,AGGAACCT,-0.0548
22,ATGTTATA,0.0385
23,ATAGGCAA,-0.246
24,ACTCGCTC,0.282
25,GACTGTGA,0.0963

row,Sequence,PBM E-score
1,AGCCCATA,0.03
2,CTAGATGC,0.00921
3,AGGATTCC,0.0112
4,GGCCGCCA,-0.0508
5,CCATCTCC,0.0056
6,AGCTCTTA,-0.234
7,CCGCGTTA,0.112
8,ATCCAGTG,0.202
9,GCGCTCGA,0.0188
10,TAATTCTA,0.0838
11,CTCCTGGA,-0.208
12,GCCGGACA,0.0608
13,ACGTCGGG,-0.102
14,GATTAGGA,-0.114
15,CTCAGGAA,-0.112
16,AGTTTAAG,-0.237
17,CTGAGACA,0.211
18,TTAAGCAA,-0.135
19,ACGAGGGA,0.108
20,CGCAAAGC,-0.241
21,CTCCGAAA,-0.13
22,GAGATGGA,0.00474
23,CAAGAACA,-0.00753
24,ATCTCCGC,0.126
25,GGTATGTA,0.173

row,Sequence,PBM E-score
1,CCACTTGC,-0.0135
2,ACCCATCT,0.171
3,CGACTCGA,0.21
4,AAATGAAA,0.0444
5,AGGCTTAA,-0.269
6,CGTCGGAA,-0.137
7,AGGTATTA,-0.0614
8,ACTACTAG,0.156
9,GCTTGCCA,-0.165
10,AGCGCGCT,0.0999
11,TCGGCGAA,-0.0431
12,ACTCTAAA,0.08
13,CTGAAGTC,-0.0789
14,CATAATCG,0.0927
15,ATTAAGTC,-0.138
16,CTACCGCA,-0.0392
17,AAGAGGTG,-0.0148
18,GGTGACAA,0.0489
19,GCATCACC,-0.0259
20,TTCCTAAA,-0.276
21,AGGTGAGG,-0.053
22,CCCGGCAA,-0.0464
23,GCCCTGCC,-0.0229
24,AGAAGTCC,-0.316
25,CTGAACGC,-0.159

row,Sequence,PBM E-score
1,CAATACGC,-0.127
2,CCGGCCGG,0.282
3,TGATTCAA,0.326
4,CACATGGA,0.115
5,ATGAATAC,0.101
6,TCGCCCAA,-0.00865
7,CAACCGGG,-0.0769
8,TGTGATAA,0.164
9,AAGTGCAA,-0.135
10,ATGAGGAC,-0.13
11,GCCATCGC,0.0151
12,CGTTTGCC,-0.049
13,AGATAATG,0.0822
14,ATTATTAA,0.158
15,CACGCCGG,0.131
16,TGAAAAAA,-0.0776
17,ACAATCGA,-0.0819
18,ACGCGCGG,0.188
19,CTCATAGA,0.0485
20,TATACTGA,0.309
21,ACAAAGTG,0.129
22,ATATCGGG,-0.0508
